In all, about 48,000 compounds went through this assay and about 1,200 (2.5%) were called active. Not shown: some 2% with an inconclusive outcome.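 How the source made its calls: active means activation of at least 60% and not above a set upper limit (about 1 call in 100 departs from these limits); inconclusive means activation of 40% to 60%, or above that upper limit; inactive means activation under 40%.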 Some of the results follow.

Sequence of UniProt O75388 (O75388 whole entry, looked up): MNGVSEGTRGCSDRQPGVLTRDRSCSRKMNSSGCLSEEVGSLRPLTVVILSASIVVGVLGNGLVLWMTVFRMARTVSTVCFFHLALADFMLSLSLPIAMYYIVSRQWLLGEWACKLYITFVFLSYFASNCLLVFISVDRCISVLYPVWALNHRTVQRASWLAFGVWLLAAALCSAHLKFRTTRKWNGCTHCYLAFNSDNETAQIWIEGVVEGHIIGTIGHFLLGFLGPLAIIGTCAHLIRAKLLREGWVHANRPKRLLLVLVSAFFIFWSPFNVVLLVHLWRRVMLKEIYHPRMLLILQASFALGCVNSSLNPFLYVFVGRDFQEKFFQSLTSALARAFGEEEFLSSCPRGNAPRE

The target in this assay is Probable G-protein coupled receptor 32 (Homo sapiens) (UniProt O75388). As to the kind of experiment: qHTS for Agonists of Human Resolvin D1 Receptor DRV1. Further: 0% is about no effect. Conditions: CHO-K1 GPR32 beta-arrestin PathHunter luminescence, 90 min; at 76.9 µM; active compounds read high; zero percent set by DMSO-only wells. A digest of the protocol:
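Cells are plated overnight, treated with compounds in DMSO for 90 minutes at 37 °C, and developed with PathHunter detection reagent for 1 hour before luminescence is read; signal reflects beta-arrestin binding to GPR32 in engineered CHO-K1 cells.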
(In general: In qHTS, concentration-response curves come from the screen itself.)
`CC1CCN(C(=O)CSc2n[nH]c(-c3ccc(F)cc3)n2)CC1`: the activation was inactive: -11.7%.

In the case of `CCc1nc2ccc(C(=O)N3CCN(c4cc(Cl)ccc4C)CC3)cc2nc1CC`, the activation was inactive: -22.2%. For `Cc1ccc(S(=O)(=O)NCC2CCC(C(=O)NCCc3ccccc3)CC2)cc1` (stereo unspecified), the activation is inactive: -5.75%. To `CC(C)(C)C(=O)Nc1ccc(-c2nc3ccc(NC(=O)C(C)(C)C)cc3[nH]2)cc1` belongs inactive: -15.5%; to `CCC(=O)N1CCc2cc(CNS(=O)(=O)c3cc(OC)ccc3OC)ccc21`, inactive: -9.06%; to `CCOC(=O)c1cnc2cc(C(F)(F)F)ccc2c1Nc1ccc(F)cc1F`, inactive: 4.26%. Turning to `CC(=O)Nc1ccc(S(=O)(=O)NC2(C(F)(F)F)C(=O)Nc3c2c(=O)[nH]c(=O)n3-c2cccc(Cl)c2)cc1` (stereo unspecified), the activation is inactive: -11.9%. Turning to `Cc1cccc(-c2nc(CN3CCCC(C(=O)N4CCN(c5cc(Cl)ccc5C)CC4)C3)c(C)o2)c1` (stereo unspecified), the activation is inactive: 38.5%. For `O=C(c1ccc(F)cc1)c1cn(Cc2ccccc2F)c2cc3c(cc2c1=O)OCCO3`, the activation was inactive: -6.69%.

For `Oc1ccc(Cl)cc1C1=Nc2ccccc2N=C(c2ccccc2)C1`, the activation was inactive: 4.59%. `Cc1ccc(CSc2nc3cccnc3n2Cc2ccc(C(=O)NCc3ccco3)cc2)cc1`: the activation was inactive: 25.5%.

Consider `CCc1ccccc1NC(=O)CSc1nncn2c1cc1oc(C)cc12`, for which the activation was inactive: -12.8%. The same measure for `COc1ccc(CN2C(=O)C(NC(=O)c3cccc(C)c3)(C(F)(F)F)N=C2c2ccccc2)cc1` (stereo unspecified): inactive: -41.7%. `Cn1c2ccccc2c2cnn(CC(=O)NCCCN3CCCCC3)c(=O)c21`: the activation was inactive: 1.97%. The same measure for `CCOc1ccc(NC(=O)CSc2cn(CCNC(=O)c3ccccc3F)c3ccccc23)cc1`: inactive: 13.6%; for `Fc1ccc(C(c2nnc(-c3ccccc3)o2)N2CCN(c3cccc(Cl)c3)CC2)cc1` (stereo unspecified): inactive: -1.81%; for `CC(=O)c1cccc(NC(=O)CSc2nnc3ccc(-c4ccc(Br)cc4)nn23)c1`: inactive: -1.84%. `O=C(NCCS(=O)(=O)N1CCN(c2ccc(F)cc2)CC1)C(c1ccccc1)c1ccccc1`: the activation was inactive: -19.7%. In the case of `CCOC(=O)C(CC)n1nnc2sc(-c3ccccc3)cc2c1=O` (stereo unspecified), the activation was inactive: 2.13%. To `CC(C)Oc1ccccc1-c1nc(SCC(=O)c2ccc(F)cc2)n[nH]1` belongs inactive: 19.3%.

Consider `Cc1ccc(Nc2c(-c3c[nH]c4ccccc34)nc3ccccn23)cc1`, for which the activation is inactive: 5.18%. The same measure for `Cc1ccc2oc(=O)c3cnn(CC(=O)N4CCN(c5ccc(F)cc5)CC4)c3c2c1`: inactive: 0.135%.

Take `COc1ccc(OC)c(CCNC(=O)c2cc3c(s2)-c2c(C)cccc2OC3)c1`: the activation is inactive: 3.73%.

For the molecule `Cc1ccc(-n2c(=O)c3sc4ccccc4c3n(CC(=O)NC3CCCC3)c2=O)cc1C`, the activation was inactive: -1.63%. Turning to `Cc1ccc(NC(=O)Cn2c(=O)n(Cc3ccccc3)c(=O)c3sc4ccccc4c32)cc1`, the activation was inactive: -7.83%. Consider `Cc1ccc(CNC(=O)CSc2nc3c(sc4ccccc43)c(=O)n2CCCOC(C)C)cc1`, for which the activation is inactive: -6.57%. As for `CCN(CC)S(=O)(=O)c1ccc(NC(=O)CN(c2ccccc2)S(=O)(=O)N(C)C)cc1`, the activation is inactive: 16.9%.

With `O=C(CN1C(=O)C2(SCC(=O)N2c2cccc(Cl)c2)c2ccccc21)NCCc1ccccc1` (stereo unspecified), the activation was inactive: -8.04%. Consider `CCOc1ccc(NC(=O)c2c(Nc3ccccc3C)sc(C(=O)c3ccccc3)c2N)cc1`, for which the activation is inactive: -86.3%.

For the molecule `Cc1c(Cl)cccc1-c1ccc(CNCCSc2nnnn2-c2ccccc2)o1`, the activation was inactive: -12.5%. As to `CCS(=O)(=O)c1ncc(N(Cc2ccccc2)Cc2ccco2)c(C(=O)Nc2cccc(Cl)c2C)n1`, the activation was inactive: -13.8%. In the case of `COc1ccccc1C(=O)Nc1ccc2nc(SCC(=O)N(C)c3ccccc3)sc2c1`, the activation was inactive: 12%. `NC[C@H]1O[C@@H](n2cnc3c(N)ncnc32)[C@H](O)[C@@H]1O`: the activation was inactive: 2.99%.

For the molecule `CCOc1ccc(NC(=O)C(Cc2ccccc2)NS(=O)(=O)c2ccc3c(c2)oc(=O)n3C)cc1` (stereo unspecified), the activation was inactive: 0.0475%. For the molecule `CCOc1ccc(CNC(=O)c2ccc3c(c2)c(C)c(C)n3Cc2ccccc2)cc1OC`, the activation is inactive: -16.4%. For `COC(=O)c1ccc(Cl)cc1NC(=O)Nc1nnc(N2CCCC2)s1`, the activation is inactive: -12.6%. Consider `COc1ccc(CCNC(=O)c2ccc3c(c2)N(Cc2ccccc2)C(=O)c2ccccc2S3=O)cc1OC` (stereo unspecified), for which the activation was inactive: -5.41%. The same measure for `Cc1ccc(C)c(Cn2c3ccccc3c3cnn(CC(=O)NC(C)CCc4ccccc4)c(=O)c32)c1` (stereo unspecified): inactive: -5.71%; for `Cc1ccc(-n2ncc(C(=O)N3CCN(c4cc(Cl)ccc4C)CC3)c2C2CCN(C(=O)OC(C)(C)C)CC2)cc1`: inactive: -22.3%; for `COc1ccc(NC(=O)c2c(NCc3cccs3)sc3c2CCC(C)C3)c(OC)c1` (stereo unspecified): inactive: 16.7%. In the case of `CCCCCN(CCCOC)C(=O)C(CCC(=O)O)NC(=O)c1ccc(Cl)c(Cl)c1` (stereo unspecified), the activation was inactive: -3.34%. For `O=C(CSc1nnc(-c2ccccc2Cl)o1)N1CCCc2ccccc21`, the activation is inactive: 4.05%. Consider `COc1ccc(S(=O)(=O)NCC(c2cccs2)S(=O)(=O)c2ccccc2)cc1OC` (stereo unspecified), for which the activation was inactive: -17%. To `COc1ccc(-c2nnc(SCC(=O)Nc3cccc(C(F)(F)F)c3)s2)cc1` belongs inactive: 30.1%; to `CCOc1ccc(C(=O)c2cn(CC(=O)Nc3ccc(Cl)cc3)c3cc4c(cc3c2=O)OCO4)cc1`, inactive: 3.41%. In the case of `Cc1nn(C)c2c1c(C(F)(F)F)cc(=O)n2C(C)C(=O)Nc1ccccc1F` (stereo unspecified), the activation is inactive: -0.566%.

Turning to `Cc1c(C(=O)N(Cc2ccccc2F)C2CCS(=O)(=O)C2)oc2ccccc12` (stereo unspecified), the activation is inactive: -12%. On to `CC(=O)N1CCc2cc(Br)cc(S(=O)(=O)CCC(=O)N3CCN(c4ccc(F)cc4)CC3)c21`, for which the activation is inactive: 5.41%. As to `Cc1ccc(CN2CCC(CNC(=O)c3cnn(-c4ccccc4Cl)c3C3CCN(C(=O)OC(C)(C)C)CC3)CC2)cc1`, the activation was inactive: -19.2%. On to `COc1cc(/C=C/c2nc(C#N)c(N3CCN(C)CC3)o2)cc(OC)c1OC`, for which the activation was inactive: -16.4%. As for `CN(C(=O)c1ccc2c(c1)N(Cc1cccc(Cl)c1)C(=O)c1ccccc1S2(=O)=O)C1CCCCC1`, the activation was inactive: -35%. Regarding `COc1ccc(NC(=O)COCc2cc(-c3ccc4c(c3)OCO4)on2)cc1`, the activation was inactive: 16.8%. On to `COc1cccc(NS(=O)(=O)c2ccc3c(c2)n(C)c(=O)n3C)c1`, for which the activation was active: 85.9%. `Cc1c(-c2nc(-c3ccccc3)no2)nnn1-c1ccc(F)c(Cl)c1`: the activation was inactive: -8.48%. In the case of `CCc1ccc(NC(=O)Cn2c(=O)n(-c3ccc(Cl)c(Cl)c3)c(=O)c3c(C)c(C)sc32)cc1`, the activation was inactive: -2.47%. As to `COc1ccc(Cl)c2sc(NC(=O)c3ccc(S(=O)(=O)N4CCOCC4)cc3)nc12`, the activation is inactive: -24.8%. Turning to `CSc1cccc(NC(=O)C2CCN(c3nc4ccccc4[nH]3)CC2)c1`, the activation is inactive: -4.98%. To `Cc1ccc(Cn2c(SCc3ccc(C(=O)NC4CCCCC4)cc3)nc3ccncc32)cc1` belongs inactive: 3.16%; to `COCCNC(=O)c1cnc2sc(N3CCCCC3)nn2c1=O`, inactive: 7.48%; to `CC(=O)OCC(COC(C)=O)OC(C)=O`, inactive: -8.03%.

As to `Cc1ccc(-c2nc3c(c(SCc4ccc(Br)cc4)n2)Cc2c(CO)cnc(C)c2O3)cc1`, the activation is inactive: 16.4%. In the case of `CSc1cccc(NC(=O)c2cnn(-c3ccc(F)cc3)c2-n2cccc2)c1`, the activation is inactive: -3.8%. Regarding `O=C(CSc1nc2c([nH]c3ccccc32)c(=O)n1-c1ccc(Cl)cc1)N1CCc2ccccc21`, the activation was inactive: 11.1%. For `Cc1ccc2c(=O)cc(C(=O)Nc3ccc(S(=O)(=O)N(C)c4ccccc4)cc3)oc2c1C`, the activation is inactive: -4.36%.

For the molecule `O=C(CSc1nc2ccccc2nc1Cc1ccc(Cl)cc1)Nc1ccc2c(c1)OCO2`, the activation was inactive: -12.9%. `O=C(Cn1ncn2c(cc3sccc32)c1=O)NCCc1ccccc1`: the activation was inactive: -4.46%.

With `COc1ccc(CCNC(=O)CCc2c(C)c3cc4c(C)c(C)oc4cc3oc2=O)cc1OC`, the activation is inactive: 40.8%. To `Cc1ccc(-c2nc(CCNC(=O)c3ccc(C)c(C)c3)cs2)cc1` belongs inactive: 0.206%; to `CCOC(=O)c1ccc(NC2=CC(c3ccc(OCC)cc3)N(c3ccc(C(=O)OCC)cc3)C2=O)cc1` (stereo unspecified), inactive: -6.64%; to `CCOC(=O)c1cnc2cc(C(F)(F)F)ccc2c1Nc1cc(C)ccc1OC`, inactive: -8.98%. `CC(=O)N1c2ccccc2C(=O)C1N1CCN(c2ccccc2F)CC1` (stereo unspecified): the activation is inactive: -27.9%.

Turning to `COc1ccc(-c2noc(CN(C)S(=O)(=O)c3c(C)cc(C)cc3C)n2)cc1OC`, the activation was inactive: -11.6%. For the molecule `CCC(C(=O)Nc1cccc(Cl)c1C)n1nc(C)c2sc3ccccc3c2c1=O` (stereo unspecified), the activation is inactive: -15.1%. With `COc1ccc(C)cc1NC(=O)c1ccc(NS(=O)(=O)c2c(C)noc2C)cc1`, the activation is inactive: 24%. For `CCCCn1cc(S(=O)(=O)c2ccc(C)cc2)c(=O)c2cc(F)c(N3CCCCC3)cc21`, the activation was inactive: -4.64%.

Take `Cc1cc(O)c(C(c2ccccc2)N2CCCCC2)c(=O)n1Cc1ccco1` (stereo unspecified): the activation was inactive: -8.05%.

Regarding `CCOc1ccccc1NC(=O)CSc1nnc2[nH]c(=O)cc(C)n12`, the activation was inactive: 9.69%.

In the case of `COc1ccccc1-c1nc2n(n1)C(c1ccccc1Cl)C(C(=O)Nc1cccnc1)=C(C)N2` (stereo unspecified), the activation is inactive: -15.2%. To `CC(C)(C)OC(=O)N1CCC(c2c(C(=O)NCc3ccccc3)cnn2-c2cccc(F)c2)CC1` belongs inactive: -6.57%; to `COCCCNC(=O)C1CCN(Cc2cc3ccccc3n2Cc2ccccc2C)CC1`, inactive: 1.86%; to `Cc1oc(-c2ccc(Cl)cc2)nc1CN1CCCC(C(=O)NCCc2ccc(Cl)cc2)C1` (stereo unspecified), inactive: 42.8%.

For the origin of these results see PubChem BioAssay AID1346428 (National Center for Advancing Translational Sciences (NCATS), 2018).
